# Data from the supplement of paper PMC10600219.
# Where a name gives a salt, the structure may show the parent alone. The full ranking holds about 2,800 compounds; the median of “cell viability relative to vehicle” is about 0.98, and the lowest 2% start at about 0.45. This is one part of the list.
# Tested on: NCI-H2228 alectinib-DTP
# Assay: cell viability relative to vehicle (fraction of vehicle); NCI-H2228 is an ALK-positive lung cancer line and DTP means drug-tolerant persister; higher = less growth inhibition
# Conditions: 100 nM; treatment time 6 days
# In short: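 NCI-H2228 parental cells and drug-tolerant persister cells were plated in 384-well plates; the persisters had been generated with 1000 nM of a targeted drug over 13 days. One day later, the 3114-agent TargetMol anti-cancer compound library was added at 100 nM, with DMSO serving as vehicle. ATP was measured 6 days after that using the CellTiter-Glo 3D Cell Viability Assay. Values are cell viability expressed relative to vehicle-treated cells.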
row,Compound,cell viability
1,COc1cc2nc(N3CCCC3)nc(NCCCCCN3CCCC3)c2cc1OC,1.02
2,Nc1ccc(-c2cnc(N)c(-c3ccc(Cl)cc3)c2)cn1,1.07
3,CC[C@H](CC#N)OC(=O)N[C@@H](C)c1cccc(NC(=O)Nc2ccc(-c3cnco3)c(OC)c2)c1,0.694
4,Cn1cnc2c(F)c(Nc3ccc(Br)cc3F)c(C(=O)NOCCO)cc21 [Binimetinib],0.825
5,O=C1[C@@H]2[C@H]3CC[C@H](C3)[C@@H]2C(=O)N1C[C@@H]1CCCC[C@H]1CN1CCN(c2nsc3ccccc23)CC1 [Lurasidone hydrochloride],0.947
6,CCCCCCCCCCCCCCCCn1cc[n+](Cc2ccccc2)c1C,0.946
7,CSc1nc2cc(Cl)c(Oc3cccc(Cl)c3Cl)cc2[nH]1 [Triclabendazole],0.984
8,Cc1ccccc1N1CCN(CCc2nnc3n2CCCC3)CC1 [Dapiprazole Hydrochloride],1
9,Nc1ccc(-c2ccc3ncc4ccc(=O)n(-c5cccc(C(F)(F)F)c5)c4c3c2)cn1 [Torin 2],0.414
10,Cc1cnc(-c2ccccc2C(C)C)nc1NCc1ccc(-n2ccnn2)cc1,0.982
11,O=C(CCNNC(=O)c1ccncc1)NCc1ccccc1 [Nialamide],1.01
12,CC1(C)C(O[C@@H]2OC[C@@H](O)[C@H](O)[C@H]2O)CC[C@]23CC24CC[C@]2(C)[C@@H]([C@@]5(C)CC[C@@H](C(C)(C)O)O5)[C@H](O)C[C@@]2(C)C4C[C@@H](O[C@@H]2O[C@H](CO)[C@@H](O)[C@H](O)[C@H]2O)C13 (stereo partly drawn) [Astragaloside IV],0.823
13,CN1C(=O)C(Cc2c[nH]c3ccccc23)NC1=S (stereo not drawn) [Necrostatin-1],0.772
14,CCN(CC)CCOc1ccc(Nc2ncc3cc(-c4c(Cl)cccc4Cl)c(=O)n(C)c3n2)cc1,0.445
15,NS(=O)(=O)c1ccc(S(=O)(=O)Nc2cccc3c(Cl)c[nH]c23)cc1 [Indisulam],0.961
16,CCn1c(-c2nonc2N)nc2c(C#CC(C)(C)O)ncc(OC[C@H]3CCCNC3)c21,0.678
17,Nc1nc(OCC2CCCCC2)c2[nH]cnc2n1,1.01
18,CC=CC1=C(C(=O)O)N2C(=O)[C@@H](NC(=O)[C@H](N)c3ccc(O)cc3)[C@H]2SC1 [Cefprozil hydrate],0.996
19,CC(C)OC(=O)C(C)(C)Oc1ccc(C(=O)c2ccc(Cl)cc2)cc1 [Fenofibrate],1.09
20,OCCOc1ccc(/C(=C(/CCCl)c2ccccc2)c2ccccc2)cc1 [Ospemifene],0.912
21,C=C1CC/C=C(\C)CC[C@@H]2[C@@H]1CC2(C)C [β-Caryophyllene],1.09
22,C[C@H]1[C@H](C)CC[C@]2(C(=O)O[C@@H]3O[C@H](CO[C@@H]4O[C@H](CO)[C@@H](O[C@@H]5O[C@H](C)[C@H](O)[C@@H](O)[C@H]5O)[C@H](O)[C@H]4O)[C@@H](O)[C@H](O)[C@H]3O)CC[C@]3(C)C(=CC[C@@H]4[C@@]5(C)C[C@@H](O)[C@H](O)[C@@](C)(CO)[C@@H]5CC[C@]43C)[C@H]12 [Asiaticoside],1
23,O=C(NN=Cc1c(O)ccc2ccccc12)c1ccncc1,0.75
24,Cc1ccc(NC(=O)C2(c3ccc4c(c3)OC(F)(F)O4)CC2)nc1-c1cccc(C(=O)O)c1 [Lumacaftor],0.783

row,Compound,cell viability
1,CNC(=O)c1ccc(Nc2ncc(C(F)(F)F)c(NCc3nccnc3N(C)S(C)(=O)=O)n2)cc1 [Defactinib],1.01
2,Cn1cc(/C=C2\C(=O)Nc3cccnc32)c2ccccc21,0.799
3,CNC(=O)c1cc(Oc2ccc3nc(N[C@@H]4CCCC[C@H]4O)sc3c2)ccn1,1.15
4,CC(N)CCCC(C)(C)O (stereo not drawn) [Heptaminol hydrochloride],1.03
5,N#CCC(=O)NN [Cyanoacetohydrazide],1.18
6,CC(C)(C)c1ccc(S(=O)(=O)/C=C/C#N)cc1,1.06
7,COc1nccnc1NS(=O)(=O)c1ccc(N)cc1 [Sulfalen],1.25
8,COc1ccc2cc(C(C)C(=O)Oc3ccc(C(N)=S)cc3)ccc2c1 (stereo not drawn),0.982
9,COc1ccc(-c2nc(-c3cc(C(F)(F)F)cc(C(F)(F)F)c3)n(Cc3ccc(C(N)=O)cc3)c2-c2ccc(OC)cc2)cc1 [Apoptozole],0.817
10,COc1ccc(/C(C#N)=C/c2ccc(N3CCC(O)CC3)s2)cc1OC,0.953
11,CC(=O)c1c(C)c2cnc(Nc3ccc(N4CCNCC4)cn3)nc2n(C2CCCC2)c1=O [Palbociclib Isethionate],0.968
12,CC(=O)c1c(C)c2cnc(Nc3ccc(N4CCNCC4)cn3)nc2n(C2CCCC2)c1=O [Palbociclib],0.797
13,COC1=CC(=O)c2ccccc2C1=O [2-Methoxynaphthoquinone],1.06
14,CS(=O)(=O)c1cccc(C[C@H](NC(=O)c2c(Cl)cc3c(c2Cl)CCN(C(=O)c2ccc4ccoc4c2)C3)C(=O)O)c1 [Lifitegrast],1.03
15,CCCNC(=O)Nc1ccc(Oc2ncnc3cc(OC)c(OC)cc23)cc1Cl,1.12
16,NC(=O)c1ccc(-c2nc(-c3ccccn3)c(-c3ccc4c(c3)OCO4)[nH]2)cc1,0.891
17,Cc1cn(-c2cc(NC(=O)c3ccc(C)c(Nc4nccc(-c5cccnc5)n4)c3)cc(C(F)(F)F)c2)cn1 [Nilotinib],0.965
18,C[C@@H](O[C@H]1OCCN(Cc2n[nH]c(=O)[nH]2)[C@H]1c1ccc(F)cc1)c1cc(C(F)(F)F)cc(C(F)(F)F)c1 [Aprepitant],0.907
19,CN/C(=N\CCSCc1nc[nH]c1C)NC#N [Cimetidine],0.96
20,COc1ccc(C2=N[C@@H](c3ccc(Cl)cc3)[C@@H](c3ccc(Cl)cc3)N2C(=O)N2CCNC(=O)C2)c(OC(C)C)c1 [Nutlin-3a],0.977
21,COc1ccc(C2=N[C@@H](c3ccc(Cl)cc3)[C@@H](c3ccc(Cl)cc3)N2C(=O)N2CCNC(=O)C2)c(OC(C)C)c1 [Nutlin3],1.13
22,COc1ccc(S(=O)(=O)N(Cc2cccnc2)[C@@H](C(=O)NO)C(C)C)cc1,1.06
23,O=C(O)c1cc(N(Cc2ccccc2O)Cc2cc(O)ccc2O)ccc1O [lavendustin A],1.07
24,Cc1cn([C@H]2C[C@H](O)[C@@H](COP(=O)(O)OP(=O)(O)OP(=O)(O)O)O2)c(=O)[nH]c1=O [Deoxythymidine triphosphate],1.05
